Measurements reported in the RNAGym collection of RNA variant scans (doi:10.1073/pnas.2313332121).
This sample is rich in variants without activity.

B1: TPR 5TU (parent)
chain: GGAUCUUCUCGAUCUAACAAAAAAGACAAAUCUGCCACAAAGCUUGAGAGCAUCUUCGGAUGCAGAGGCGGCAGCCUUCGGUGGCGCGAUAGCGCCAACGUUCUCAACUAUGACACGCAAAACGCGUGCUCCGUUGAAUGGAGUUUAUCAUG

Variants of: B1
Assay: polymerase ribozyme fitness, log enrichment relative to wild type (log ratio); higher = more active; in vitro selection for triplet polymerase activity
In short: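 Each subunit of a heterodimeric triplet polymerase ribozyme was represented by a PCR-built, transcribed mutant library that underwent triplicate single-round in vitro selection with frozen incubation at −7 °C. Extended constructs were recovered by gel excision, streptavidin-bead capture and RT-PCR, and Illumina sequencing of input and output libraries kept genotypes with ≥10 input reads and ≥1 read per output. Fitness is the logarithm of genotype enrichment relative to wild-type enrichment, from inverse-variance-weighted replicate averages, with a logarithm base of 2.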

Variant	polymerase ribozyme fitness (log ratio)
C10U A20U C43G G46A A47C G58A C79U	≤ -4.2
C10G A19G A22U G74A G83U C85G	≤ -4.2
C10A U53A C85A C96G G100A U127C U146A	≤ -4.2
C10A U45A A98G C123U G140A U144A A150G	≤ -4.2
C10U A49C C85A	≤ -4.2
C10U A39U C51U A89G G92U A97U C116G G117A	≤ -4.2
C10G G68C G83U A107C	≤ -4.2
C10G A22U U45G C79A A91G	≤ -4.2
C10A G11U G50A U148G	≤ -4.2
C10G A20U A37C A41C A49G A52G G59C G126A	≤ -4.2
C10G A16G A21G U53C G70A A115U G133A	≤ -4.2
C10U G59U C79U C87U G112C U146A	≤ -4.2
C10G G48A U82A A91G C95G A97C A137U	≤ -4.2
C10G C72G C87G G94C C108G C114A U146A	≤ -4.2
C10G A40C C93A U104A G141C U144G G152A	≤ -4.2
C10U A12U C14U A29U G48U G50A C54U A64G G84C U109G	≤ -4.2
C10A C14G A20G G50C G94A C96U C116G A119U	≤ -4.2
C10A C54U G67C C85A A107U	≤ -4.2
C10A U13C C43U G65C C96A G117A A121G G141C	≤ -4.2
C10G U144C	-3.87
C10U C32U G84A	≤ -4.2

Variant	polymerase ribozyme fitness (log ratio)
C10G C27A U82C G83A A91U	≤ -4.2
C10G U61A C93A U139A	≤ -4.2
C10U A17C C38U G58C C96G	-3.69
C10A C38U G68C C87U C105U A115G G140A	≤ -4.2
C10U A23U U33G C96G A115C	≤ -4.2
C10A G11C A26G U55A G59C G81U G88A C118U A121U G126U G133C G141U U148A	≤ -4.2
C10G A52U C72U G86U C93U C116G G124A U144C	≤ -4.2
C10U A17C A21C C51U C85A C99U A119C	≤ -4.2
C10A C14U C36U G42A U55G A73U G86U	≤ -4.2
C10A C18A A22U A29G A41U U45G G50U C57U G74A G88C A106U	≤ -4.2
C10U C93U A110U	≤ -4.2
C10U C14G A23G C51U G58A A66C G86A A107G U134C	≤ -4.2
C10G A16G A17G A19U A23U G48A U53A A97G A98U U101G C149U	≤ -4.2
C10G C96G C103U	≤ -4.2
C10A G58C A66U G80A C95U C96U U144G	≤ -4.2
C10G A24C A30G A66U C79U G86C C114G	≤ -4.2
C10G U55A G80U	≤ -4.2
C10U G84U	-4.13
C10G A17C G68C A115G	≤ -4.2
C10U U53A C87A U90A A97U C118G	≤ -4.2
C10G U55G U56A A73G G94A	≤ -4.2

Variant	polymerase ribozyme fitness (log ratio)
C10A G68A A91C G92U U111G C132G U148A	≤ -4.2
C10G A16C C54G C76G A89U C93A A113G C116U	≤ -4.2
C10G A24G C27A A64G G81A A91U C93U A142U	≤ -4.2
C10U G50A U55G G80C G86U	≤ -4.2
C10A C54G A73U A120U	≤ -4.2
C10G A24U A29C G50C G80C G94U G124A	≤ -4.2
C10G A17G A26G C54G G65C G84U G141A C149A	≤ -4.2
C10U C38U A73G A89G A97G C116G A122U C129A	≤ -4.2
C10A G88C U104G G128A A137U A138G G140U	≤ -4.2
C10G A29C U53A G80A C93U A119C U144G	≤ -4.2
C10G G11A C35G U44G A52U G88A C96U	≤ -4.2
C10U C57A A60U C95U C105U A120U	≤ -4.2
C10U G48A C54U G83A C105U A122C	≤ -4.2
C10U A39G C54G C63A G70C C93U G141A	≤ -4.2
C10U A30C A40C G74C U77A G92A C125A U151C	≤ -4.2
C10A A24C C57A C93A C95U C103G	≤ -4.2
C10G C14G A22G C38A C79A A89U G94U C123U A142C G152A	≤ -4.2
C10A A41G C85U C149U	≤ -4.2
C10A U13G C14U C76G C79U A138U G141U	≤ -4.2
C10U C57A G83C G141A	≤ -4.2
C10A G92C C103A U111A	≤ -4.2

Variant	polymerase ribozyme fitness (log ratio)
C10U C54U G81U C87U G100U C125G	≤ -4.2
C10A G46C G83A U90A G94U C99G C129U	≤ -4.2
C10G A21G A40U C85G	≤ -4.2
C10A U55G G83U A91C G136A	≤ -4.2
C10G	-2.78
C10U	-2.16
C10A A60G C93G	≤ -4.2
C10U A12C U15C A40U G70U C72U C75A C76U C93U A98U C118G C149A	≤ -4.2
C10G A28U A52G G62U C96U U101G G117A U127A C131U G133A U148A	≤ -4.2
C10G U33A C35U U55G C57U C85U C87U A142C	≤ -4.2
C10U A12G C36A C57G C93G	≤ -4.2
C10A G11U C14G A40G G88A G94C A98G A113C	≤ -4.2
C10G C18G U31G G34C G67C C75U U77C C96U U151G	≤ -4.2
C10G G25U U31C C38U C63G C93G C108U	≤ -4.2
C10A C63U G92C U101G	≤ -4.2
C10A G124A	≤ -4.2
C10G A73G A89U U102G A142C G152U	≤ -4.2
C10G C85U	-3
C10G A28C C38A C43U C95G G143U	≤ -4.2
C10U A22C A60G C87U G88U	≤ -4.2
C10G A89G	≤ -4.2
